In PMC11911400, “Mechanism of ASF1 engagement by CDAN1” (Nature Communications, 2025):
Where a chain is given by its changes, count along the chain named. Results are given in words; binding and its absence hold for the method and conditions named. Binding seen in cells or lysates may run through a third protein. Some binding calls cover weakened binding; strength is not graded here.

What was measured:
[1] = target: T1, Strep-CDAN1 BDA1* BDA2* (both B-domains mutated) (human) (UniProt Q8IWY9); experiment: pull-down; Strep-Tactin pulldown of transiently transfected ST-CDAN1 variants from Flp-In 293 T-REx lysates; endogenous ASF1A, ASF1B and CDIN1 detected by immunoblotting; IP buffer with 1% Triton X-100, 1 hr at 4 °C
T1 sequence: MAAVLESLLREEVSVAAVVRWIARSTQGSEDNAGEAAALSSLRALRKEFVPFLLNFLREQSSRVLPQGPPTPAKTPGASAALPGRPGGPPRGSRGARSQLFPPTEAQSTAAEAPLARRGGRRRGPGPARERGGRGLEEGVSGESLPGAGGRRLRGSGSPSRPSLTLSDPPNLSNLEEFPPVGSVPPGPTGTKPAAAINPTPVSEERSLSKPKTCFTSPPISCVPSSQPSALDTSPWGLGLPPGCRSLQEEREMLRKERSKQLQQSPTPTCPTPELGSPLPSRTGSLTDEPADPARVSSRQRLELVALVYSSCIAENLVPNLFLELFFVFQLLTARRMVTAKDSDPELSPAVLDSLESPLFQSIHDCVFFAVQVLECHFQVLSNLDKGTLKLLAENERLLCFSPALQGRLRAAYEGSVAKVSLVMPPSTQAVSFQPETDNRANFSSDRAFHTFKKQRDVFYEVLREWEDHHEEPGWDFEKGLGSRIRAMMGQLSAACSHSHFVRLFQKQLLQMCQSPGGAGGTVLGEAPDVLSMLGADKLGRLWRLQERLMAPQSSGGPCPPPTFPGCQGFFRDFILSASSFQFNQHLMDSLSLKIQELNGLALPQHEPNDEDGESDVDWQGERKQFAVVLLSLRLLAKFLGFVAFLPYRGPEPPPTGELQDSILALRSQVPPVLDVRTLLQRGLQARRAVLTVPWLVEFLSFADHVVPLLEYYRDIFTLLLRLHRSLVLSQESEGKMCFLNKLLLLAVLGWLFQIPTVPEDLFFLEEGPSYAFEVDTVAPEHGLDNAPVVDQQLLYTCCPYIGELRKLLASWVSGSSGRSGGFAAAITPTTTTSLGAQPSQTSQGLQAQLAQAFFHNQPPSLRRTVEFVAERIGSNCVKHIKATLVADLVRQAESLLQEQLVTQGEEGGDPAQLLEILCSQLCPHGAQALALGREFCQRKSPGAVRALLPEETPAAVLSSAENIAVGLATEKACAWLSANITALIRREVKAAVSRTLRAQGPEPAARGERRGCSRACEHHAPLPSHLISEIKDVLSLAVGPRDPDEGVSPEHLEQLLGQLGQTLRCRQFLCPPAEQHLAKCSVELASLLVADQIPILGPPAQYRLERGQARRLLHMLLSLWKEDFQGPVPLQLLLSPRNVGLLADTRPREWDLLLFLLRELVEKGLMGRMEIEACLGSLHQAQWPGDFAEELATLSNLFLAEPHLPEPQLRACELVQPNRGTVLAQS

[2] = target: T2, Strep-CDAN1 BDA2* (S194A/R195A/R196A) (human) (UniProt Q8IWY9); experiment: as above
T2 sequence: T1 sequence with A824M, A825R, A826K

- binding [1]: binds
- binding [2]: binds
B1: FLAG-tagged CDIN1 (F-CDIN1) (natural protein, UniProt Q9Y2V0 1-281, looked up)
chain: MILTKAQYDEIAQCLVSVPPTRQSLRKLKQRFPSQSQATLLSIFSQEYQKHIKRTHAKHHTSEAIESYYQRYLNGVVKNGAAPVLLDLANEVDYAPSLMARLILERFLQEHEETPPSKSIINSMLRDPSQIPDGVLANQVYQCIVNDCCYGPLVDCIKHAIGHEHEVLLRDLLLEKNLSFLDEDQLRAKGYDKTPDFILQVPVAVEGHIIHWIESKASFGDECSHHAYLHDQFWSYWNRFGPGLVIYWYGFIQELDCNRERGILLKACFPTNIVTLCHSIA
notes: C15orf41); cDNA synthesized by IDT; source: Expi293, transiently transfected, in lysate and purified in complexes (anti-FLAG, Strep-Tactin); not shown: 3xFLAG, N-terminal, kept
